Data reported in patent US20230226223A1 (SOLA BIOSCIENCES, published 2023).

Target: GFP-HTTQ74 reporter construct
Test: cell-based or functional assay

B1: Construct 11, JB1(17-75)-2XQBP1 (designed binder)
chain: MGTGSEFDEEIKRAYRRQALRYHPDKNKEPGAEEKFKEIAEAYDVLSDPRKREIFDRYGEEGLKGSDIGGGGSGGGGSGGGGSGGGGSAAASNWKWWPGIFDGLESNWKWWPGIFD
% Aggregation (relative to Q74 alone), filter trap assay: 102%
